Yeast fitness gain data for 5 molecules are collected here from the supplement of paper PMC11741623.

B1: IL37, Q9NZH6 (protein)
chain: MSFVGENSGVKMGSEDWEKDEPQCCLEDPAGSPLEPGPSLPTMNFVHTSPKVKNLNPKKFSIHDQDHKVLVLDSGNLIAVPDKNYIRPEIFFALASSLSSASAEKGSPILLGVSKGEFCLYCDKDKGQSHPSLQLKKEKLMKLAAQKESARRPFIFYRAQVGSWNMLESAAHPGWFICTSCNCNEPVGVTDKFENRKHIEFSFQPVCKAEMSPSEVSD
B2: UCHL5, Q9Y5K5 (protein)
chain: MTGNAGEWCLMESDPGVFTELIKGFGCRGAQVEEIWSLEPENFEKLKPVHGLIFLFKWQPGEEPAGSVVQDSRLDTIFFAKQVINNACATQAIVSVLLNCTHQDVHLGETLSEFKEFSQSFDAAMKGLALSNSDVIRQVHNSFARQQMFEFDTKTSAKEEDAFHFVSYVPVNGRLYELDGLREGPIDLGACNQDDWISAVRPVIEKRIQKYSEGEIRFNLMAIVSDRKMIYEQKIAELQRQLAEEEPMDTDQGNSMLSAIQSEVAKNQMLIEEEVQKLKRYKIENIRRKHNYLPFIMELLKTLAEHQQLIPLVEKAKEKQNAKKAQETK
B3: MCFD2, Q8NI22 (protein)
chain: MTMRSLLRTPFLCGLLWAFCAPGARAEEPAASFSQPGSMGLDKNTVHDQEHIMEHLEGVINKPEAEMSPQELQLHYFKMHDYDGNNLLDGLELSTAITHVHKEEGSEQAPLMSEDELINIIDGVLRDDDKNNDGYIDYAEFAKSLQ
B4: LCN15, Q6UWW0 (protein)
chain: MMSFLLGAILTLLWAPTAQAEVLLQPDFNAEKFSGLWYVVSMASDCRVFLGKKDHLSMSTRAIRPTEEGGLHVHMEFPGADGCNQVDAEYLKVGSEGHFRVPALGYLDVRIVDTDYSSFAVLYIYKELEGALSTMVQLYSRTQDVSPQALKSFQDFYPTLGLPKDMMVMLPQSDACNPESKEAP
B5: FRMD3, A2A2Y4 (protein)
chain: MFASCHCVPRGRRTMKMIHFRSSSVKSLSQEMRCTIRLLDDSEISCHIQRETKGQFLIDHICNYYSLLEKDYFGIRYVDPEKQRHWLEPNKSIFKQMKTHPPYTMCFRVKFYPHEPLKIKEELTRYLLYLQIKRDIFHGRLLCSFSDAAYLGACIVQAELGDYDPDEHPENYISEFEIFPKQSQKLERKIVEIHKNELRGQSPPVAEFNLLLKAHTLETYGVDPHPCKDSTGTTTFLGFTAAGFVVFQGNKRIHLIKWPDVCKLKFEGKTFYVIGTQKEKKAMLAFHTSTPAACKHLWKCGVENQAFYKYAKSSQIKTVSSSKIFFKGSRFRYSGKVAKEVVEASSKIQREPPEVHRANITQSRSSHSLNKQLIINMEPLQPLLPSPSEQEEELPLGEGVPLPKEENISAPLISSSPVKAAREYEDPPSEEEDKIKEEPLTISELVYNPSASLLPTPVDDDEIDMLFDCPSRLELEREDTDSFEDLEADENAFLIAEEEELKEARRALSWSYDILTGHIRVNPLVKSFSRLLVVGLGLLLFVFPLLLLLLESGIDLSFLCEIRQTPEFEQFHYEYYCPLKEWVAGKVHLILYMLGCS

This is one part of the list. Interaction screen of human proteins with wild-type SARS-CoV-2 proteins by split-DHFR complementation in yeast, 1 µg/mL methotrexate. Value = fitness of the pair (three or more lineages) minus that of the viral protein without a human partner, on a scale set by negative (0) and fused positive (1) controls, mean of up to three cultures; higher = more likely to interact. Active = false discovery rate below 0.05 (one-sided t-test) in at least one culture. Nearly all pairs are not hits, and differences among them are mostly noise (correlation between cultures about 0.3); most hits were seen in one culture only. Human sequences are the Swiss-Prot entries looked up by gene name; the clone may be another isoform. NSP2 values were corrected by the authors for a growth advantage. Listed are human proteins with a hit and a random twelfth of the others.

For the first assay, the target named is SARS-CoV-2 M. As to the kind of experiment: yeast fitness gain over the viral ORF with no human partner (scaled fitness); higher = more likely to interact. As for the experimental part:
(§1)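 Split mouse DHFR complementation in pooled diploid yeast: human ORFeome clones carry one fragment and viral ORFs the other; barcoded lineages compete in 1 µg/mL methotrexate and fitness is read by barcode sequencing in up to three cultures.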
Consider B1, for which the yeast fitness gain is inactive: 0.0239.

Regarding B2, the yeast fitness gain was inactive: 0.0231.

Consider B3, for which the yeast fitness gain is inactive: -0.118.

In the case of B4, the yeast fitness gain is inactive: -0.0131.

Turning to B5, the yeast fitness gain was inactive: -0.0739.

A further assay has as its target SARS-CoV-2 NSP12. Described as above. The procedure: as §1
B1: the yeast fitness gain was inactive: 0.0795.

For B2, the yeast fitness gain was inactive: -0.00166.

B3: the yeast fitness gain is inactive: -0.0683.

As to B4, the yeast fitness gain is inactive: 0.105.

As to B5, the yeast fitness gain was inactive: 0.000278.

A further assay deals with SARS-CoV-2 NSP13. Described as above. The procedure:
as §1
Consider B1, for which the yeast fitness gain is inactive: 0.0123.

With B2, the yeast fitness gain is inactive: -0.000183.

As for B3, the yeast fitness gain was inactive: 0.0196.

As to B4, the yeast fitness gain is inactive: -0.0354.

B5: the yeast fitness gain is inactive: -0.0907.

The target in another assay is SARS-CoV-2 NSP16. The assay is described as above. As for the experimental part: as §1
Turning to B1, the yeast fitness gain is inactive: -0.0209.

On to B2, for which the yeast fitness gain is inactive: 0.114.

Turning to B3, the yeast fitness gain was inactive: -0.095.

A further assay has as its target SARS-CoV-2 NSP2. Described as above. As for the experimental part: as §1
In the case of B1, the yeast fitness gain is inactive: -0.0902.

As to B2, the yeast fitness gain is inactive: -0.0324.

For B3, the yeast fitness gain was inactive: -0.12.

As for B4, the yeast fitness gain is inactive: -0.263.

With B5, the yeast fitness gain was inactive: -0.0201.

In another assay the target is SARS-CoV-2 NSP6. Described as above. The procedure: as §1
For B1, the yeast fitness gain is inactive: 0.00678.

Take B2: the yeast fitness gain is inactive: 0.0318.

Turning to B3, the yeast fitness gain was inactive: -0.213.

B4: the yeast fitness gain is inactive: -0.0201.

A further assay has as its target SARS-CoV-2 NSP7. Described as above. The procedure:
as §1
For B1, the yeast fitness gain is inactive: -0.00449.

For B2, the yeast fitness gain was inactive: -0.0265.

Consider B4, for which the yeast fitness gain is inactive: -0.0159.

In another assay the target is SARS-CoV-2 ORF10. The description is as above. As for the experimental part:
as §1
As for B1, the yeast fitness gain is inactive: -0.051.

In the case of B2, the yeast fitness gain is inactive: -0.188.

For B3, the yeast fitness gain is inactive: 0.00465.

For B4, the yeast fitness gain is inactive: 0.0128.

For the next assay, the target named is SARS-CoV-2 ORF3B. Described as above. The procedure: as §1
In the case of B1, the yeast fitness gain is inactive: -0.0163.

Turning to B2, the yeast fitness gain is inactive: -0.106.

Take B3: the yeast fitness gain is inactive: 0.0066.

B4: the yeast fitness gain was inactive: 0.0372.

Consider B5, for which the yeast fitness gain was inactive: -0.0354.

A further assay addresses SARS-CoV-2 ORF6. The assay is described as above. As for the experimental part: as §1
B1: the yeast fitness gain is inactive: 0.00982.

For the molecule B2, the yeast fitness gain is inactive: 0.0036.

Take B3: the yeast fitness gain is inactive: -0.0958.

As for B4, the yeast fitness gain is inactive: -0.0371.

As for B5, the yeast fitness gain was inactive: 0.108.

A further assay deals with SARS-CoV-2 ORF7A. Described as above. The procedure:
as §1
As for B1, the yeast fitness gain was inactive: -0.0346.

As to B3, the yeast fitness gain is inactive: -0.0147.

For B4, the yeast fitness gain was inactive: -0.0863.

The target of another assay is SARS-CoV-2 ORF7B. Described as above. The procedure:
as §1
For the molecule B1, the yeast fitness gain is inactive: 0.151.

As for B2, the yeast fitness gain is inactive: -0.0291.

Turning to B4, the yeast fitness gain is inactive: -0.0368.

In a further assay the target is SARS-CoV-2 ORF8. Described as above. The procedure:
as §1
Turning to B1, the yeast fitness gain is inactive: -0.117.

B2: the yeast fitness gain was inactive: 0.0148.

With B3, the yeast fitness gain was inactive: 0.00679.

For the molecule B4, the yeast fitness gain was inactive: -0.0842.

Turning to B5, the yeast fitness gain is inactive: 0.0988.

The target in the next assay is SARS-CoV-2 ORF9B. The assay is described as above. The procedure:
as §1
Turning to B1, the yeast fitness gain was inactive: -0.0788.

With B2, the yeast fitness gain was inactive: -0.0517.

Regarding B3, the yeast fitness gain was inactive: -0.0149.

Regarding B4, the yeast fitness gain is inactive: 0.00938.

Another assay addresses SARS-CoV-2 N. The assay is described as above. As for the experimental part: as §1
For the molecule B2, the yeast fitness gain was inactive: -0.000354.

For B3, the yeast fitness gain was inactive: 0.117.

For B4, the yeast fitness gain was inactive: 0.014.

A further assay addresses SARS-CoV-2 NSP10. Described as above. As for the experimental part: as §1
On to B2, for which the yeast fitness gain was inactive: 0.0609.

For B3, the yeast fitness gain is inactive: 0.0416.

As to B4, the yeast fitness gain was inactive: -0.0277.

The target of a further assay is SARS-CoV-2 NSP15. The description is as above. The procedure: as §1
For B2, the yeast fitness gain is inactive: -0.11.

Regarding B3, the yeast fitness gain is inactive: -0.21.

The next assay deals with SARS-CoV-2 NSP5. The assay is described as above. As for the experimental part: as §1
With B2, the yeast fitness gain was inactive: -0.036.

For B3, the yeast fitness gain is inactive: -0.0328.

In the case of B4, the yeast fitness gain was inactive: 0.15.

For a further assay, the target named is SARS-CoV-2 NSP8. The description is as above. The procedure: as §1
As to B2, the yeast fitness gain was inactive: -0.00275.

Take B4: the yeast fitness gain is inactive: -0.188.

B5: the yeast fitness gain was inactive: -0.0815.

A further assay deals with SARS-CoV-2 NSP9. The assay is described as above. As for the experimental part: as §1
With B2, the yeast fitness gain is inactive: 0.0743.

As for B4, the yeast fitness gain was inactive: -0.113.

In another assay the target is SARS-CoV-2 S. Described as above. As for the experimental part:
as §1
In the case of B2, the yeast fitness gain is inactive: 0.0298.

Take B3: the yeast fitness gain was inactive: 0.0158.

As to B4, the yeast fitness gain is inactive: -0.00869.

For the molecule B5, the yeast fitness gain was inactive: -0.0916.

For a further assay, the target named is SARS-CoV-2 NSP1. The assay is described as above. The procedure:
as §1
For the molecule B3, the yeast fitness gain is inactive: -0.00793.

Regarding B5, the yeast fitness gain is inactive: -0.12.

For the next assay, the target named is SARS-CoV-2 ORF3A. The description is as above. The procedure:
as §1
Turning to B3, the yeast fitness gain was inactive: 0.0585.

The next assay addresses SARS-CoV-2 ORF9Bwu (the 73-codon ORF). The assay is described as above. As for the experimental part:
as §1
Regarding B3, the yeast fitness gain was inactive: -0.0282.
